Source: the supplement of paper PMC8821664
Structures can show the parent of a compound that is named as a salt. The list shows a part of the results. Single values are uncertain, as repeats are few or missing.

Tested on: Beas-2B AQP5-HiBiT reporter cells
Assay: AQP5-HiBiT luminescence relative to vehicle (ratio to vehicle); higher = higher AQP5-HiBiT protein abundance
Conditions: 10 µM; 18 h
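Further: monoclonal Beas-2B line stably carrying CMV promoter-driven AQP5-HiBiT, 5,000 cells per well in 384-well plates, lytic HiBiT plus LgBiT NanoLuc luminescence, FDA-approved drug library screen.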

Structure (SMILES)	AQP5-HiBiT luminescence
CC(C)(C#N)c1cc(Cn2cncn2)cc(C(C)(C)C#N)c1 [Anastrozole]	0.622
Nc1ccn([C@@H]2O[C@H](CO)[C@@H](O)[C@@H]2O)c(=O)n1 [Cytarabine]	0.854
CCN(Cc1ccncc1)C(=O)C(CO)c1ccccc1 (configuration not stated) [Tropicamide]	0.584
C[C@]12C=CC(=O)C=C1CC[C@@H]1[C@@H]2C(=O)C[C@@]2(C)[C@H]1CC[C@]2(O)C(=O)CO [Prednisone]	0.958
CCc1nn(CCCN2CCN(c3cccc(Cl)c3)CC2)c(=O)n1CCOc1ccccc1 [Nefazodone hydrochloride]	1.13
c1cnc2cc3c(cc2n1)[C@@H]1CNC[C@H]3C1 [Varenicline Tartrate]	0.89
CC(=O)/N=c1/sc(S(N)(=O)=O)nn1C [Methazolamide]	1.05
CC1(C)O[C@@H]2C[C@H]3[C@@H]4CCC5=CC(=O)CC[C@]5(C)[C@@]4(F)[C@@H](O)C[C@]3(C)[C@]2(C(=O)CCl)O1 [Halcinonide]	0.817
CCc1ccc(CCOc2ccc(CC3SC(=O)NC3=O)cc2)nc1 (configuration not stated) [Pioglitazone hydrochloride]	0.662
CCN(CC)C(=O)Nc1ccc(OCC(O)CNC(C)(C)C)c(C(C)=O)c1 (configuration not stated) [Celiprolol hydrochloride]	0.595
CCC(=O)OCC(=O)[C@@]1(OC(=O)CC)[C@@H](C)C[C@H]2[C@@H]3CCC4=CC(=O)C=C[C@]4(C)[C@@]3(F)[C@@H](O)C[C@@]21C [Betamethasone dipropionate]	0.902
CCCCC[C@H](O)/C=C/[C@H]1[C@H](O)CC(=O)[C@@H]1CCCCCCC(=O)O [Alprostadil]	0.938
